# Test results from the supplement of paper PMC10126150.
# Values marked as one replicate rest on one cluster of the flow cell; about a third of the high ones do not repeat.
# Tested on: ATP
# Assay: switch fluorescence ratio, 500 uM ATP over buffer (Cy3 cluster intensity, sum of 5 cycles each) (fold (ratio)); higher = stronger signal-on switching upon ATP binding; sequences stand for … in TCGTCGGCAGCGTCAGATGTGTATAAGAGACAGTTTTTTTTTTTTTTTTTTTTTTTTT…TC
# Details: aptamer strand: ATP DNA aptamer (quencher-CACCTGGGGGAGTATTGCGGAGGAAGG + anchor), 100 nM annealed; ATP concentration: 500 uM; one replicate
# Procedure, shortened: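 Five buffer/ATP imaging cycles were run on Cy3-labelled switching-strand clusters on a modified Illumina MiSeq flow-cell, with NaOH stripping and re-annealing between cycles. In each cycle, clusters annealed to 100 nM quencher-labelled ATP aptamer were imaged in selection buffer, then after 15 min with 500 uM ATP at 22 °C. Per cluster, the fluorescence ratio is summed target-cycle over summed buffer-cycle Cy3 intensity, averaged per switch-domain sequence. Only clusters within 100-1000 RFU were kept.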
# 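Note: ATP exposure 15 min at 22 °C before imaging.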
row,Sequence,switch fluorescence ratio
1,GCTTGAAGGT,0.971
2,TAGTCAGTCC,1
3,CCACATAGGT,1.02
4,TATGCACGGC,1.07
5,TGTTCTGTTA,0.983
6,CTCCTGGTTG,1.08
7,ACCAAACGCC,1.19
8,ATCCGATTCA,0.99
9,ACAAGCTAAG,1
10,CGCGCGTCGC,1.02
11,AGCGGAGTTG,0.972
12,GAAACACAAT,1.03
13,GCCGGACAAG,1.01
14,GCGGCAGTGG,0.999
15,AAGCATTAGG,1.02
16,TTGATCGACG,1.02
17,CACATAGGGC,1.02
18,TCTGATTTGC,0.938
19,AGCGTAAACC,1.07
20,AGAATTCTAT,1.01
21,AAGACGGTTA,0.984
22,GGTGCATAAG,1.14
23,GCCTGAAGCC,1.03
24,AATAGAATTC,0.951
25,ATCCTAATAA,1.05

row,Sequence,switch fluorescence ratio
1,ATAATAAGAG,0.967
2,CGTCTTTAGC,0.958
3,CATTAGAAAT,0.98
4,ATCAATAACT,1.02
5,AGTGGGCCCA,0.978
6,CTTATGGTA,0.995
7,GCACACCTAA,1.09
8,CTTAGGGTGC,1.04
9,CATATCCTTT,1.04
10,AAGCCCACTT,0.973
11,TCCAAGGTAG,1.05
12,TACTAACGTT,1.39
13,TGGTCTAGGG,0.94
14,GCAACTAGTA,0.969
15,TCGGTAGCCC,1.01
16,CACCTCGCCC,1.11
17,ATGACAGGTA,0.95
18,AGCTCGGATT,0.994
19,GAGTCGCGGG,0.946
20,GCTCGGATCA,0.958
21,ACATTACATG,1.11
22,AACAAAGGGC,0.969
23,GACTACGAGC,1.08
24,ACGATTCTGG,1.02
25,ACGAGGAGAT,1.02

row,Sequence,switch fluorescence ratio
1,ATCTGCCATT,1.01
2,GCAGACGGGC,0.962
3,CTCCTGAAGC,1.37
4,GTCATCCGGC,1.06
5,AGTCGCTGGT,0.993
6,GAGGTACCAT,0.933
7,GTTTTGGTAA,0.923
8,TTTACTAGA,0.954
9,TAAACTCAAT,1.03
10,ATGGAATTCA,0.979
11,ATTAGACGCA,1.09
12,TACCGTCACG,1.21
13,ATTAGGGTCG,1.11
14,GGCAAAAGGT,1
15,GAAGGACCGA,1.01
16,GCCTAATTCG,0.984
17,GAAAGACCCA,1
18,TACGAGAATG,1.02
19,AATGGTTTTA,1.03
20,CCCGGGATTT,1.01
21,ATATGGATGC,0.971
22,AGCGCATTTC,2.13
23,GGAAATAGTA,0.971
24,TTCTATTGGC,1.07
25,TCTGATTTCG,1.01

row,Sequence,switch fluorescence ratio
1,GGGAATAACA,1.05
2,TAGGAATCAT,0.982
3,ACAGTGCATA,1.06
4,ATCTAGTCGG,0.968
5,ATAAATGCC,0.971
6,CATATTCTGC,0.997
7,AAAGGTCGTG,1.01
8,CGATTCCCTT,1.04
9,AATCACAGAC,1.33
10,AGATTCCAGA,0.962
11,CGATAAAGCC,1.05
12,ACGGGCTTGT,0.991
13,GCCGCGGTGG,1.01
14,CATAAAACGT,1.03
15,CGGTATGCGG,0.946
16,ACCGAAAGTT,0.986
17,TTGCTTCTT,1.01
18,AAACATATAC,1.39
19,TGTTAAATCG,0.984
20,GATTCTCGCA,1.05
21,ACATCTCGCA,1.08
22,ATGGCGATTT,0.972
23,ACAGACCCAT,1.08
24,TCTTTCTACC,1.04
25,CGTAACGCTT,1.06

row,Sequence,switch fluorescence ratio
1,AAGCAATGTA,1.2
2,TGCGTCTGCT,1.02
3,AATTATAAGG,1.05
4,TCGTTTAGGC,0.973
5,AAGTAATTCA,1.04
6,CCAGGCTGGA,1.02
7,GGTTTGGCTT,1.02
8,ACGAGGCGAT,6.4
9,GCGATCCAGC,1.01
10,CACCTTAATA,1.05
11,TATCTCTGT,1.04
12,CCCACCGGCC,1.17
13,CTCTTACCTT,1.13
14,TTAAAGAGGT,0.963
15,TGGCTTCTAG,0.992
16,TCAGCATCTG,1.03
17,ACGTAGCTCA,1.58
18,AGGCATCCTA,0.986
19,TTTTGTCCGA,1.02
20,CGAATATTTT,0.99
21,AAAATGCTGC,0.939
22,CCCCTATCTA,1.02
23,ACGTTCAGCG,0.976
24,GCCGTGACTG,0.996
25,GCGGCAGGTC,1.05

row,Sequence,switch fluorescence ratio
1,CCTTCATTGT,1.04
2,CCTTGGTTGA,1.03
3,ACGATCCCGC,1.52
4,AATAACGTCC,1.06
5,GCGTCACAGG,1.25
6,TCAAGATAAG,1.02
7,GGGATCATG,1.03
8,AGTAATGTTA,0.95
9,AGACTGGGG,1.11
10,CCAGCGGTTC,1.47
11,GAAATTCGTA,0.968
12,CTTTTGAATA,1.05
13,CCTGGAACTC,1.05
14,GTATTCCCGT,0.979
15,GGATGCGCGA,1.07
16,TTGATTCACA,1.02
17,TGGGGAACTA,0.961
18,TTTTAAGATG,1.2
19,CATCCCAGTT,1.15
20,CTCAATGTGT,1.01
21,TGCGAGAGCA,0.958
22,ACTGAATATT,0.991
23,TTCTGTGGTA,0.98
24,GTAGATGTCC,1.04
25,AAATCGGTTT,0.998

row,Sequence,switch fluorescence ratio
1,TGAGTTACCG,0.979
2,TGAATGCTGG,1.04
3,AGTCGGCAAC,1.37
4,ATAGTAAACC,0.992
5,ACGGTTGACC,1.05
6,TAAATTTAGA,0.97
7,CAATGGGCCG,1.04
8,CTGCTACGCT,1.13
9,CGCTTGTCT,1.01
10,ACATCTTGTT,1
11,TCACTTTCTT,0.964
12,TAAAAGTCAG,1
13,AGCTCATCGA,0.994
14,ATGGGGCAGA,1.02
15,TCTAGGCAC,1.04
16,GACAGTTTGA,0.981
17,CTCCATTATT,1.03
18,TGAAAACCGC,1.12
19,TAGTATAGGT,1.03
20,GATATCTAGT,1.01
21,CCCTGTGGTT,3.94
22,GGGAGACACC,0.985
23,GGGGCAGTTG,1.01
24,CGGCCCCGAT,0.967
25,AAAGCTAACA,0.982

row,Sequence,switch fluorescence ratio
1,AAGAATCGTA,0.967
2,AATGCTTTTT,0.989
3,ATATGTCTTC,1.03
4,TACAAGTCTG,0.999
5,AAATTTAATA,0.988
6,GGATCCTTTG,0.995
7,ACAGCTGGAC,1.17
8,CGAAGTGAAG,1.01
9,ACCGGCGTAC,1.45
10,CGACAATGAT,1.08
11,TTGAAAATAC,1.05
12,TCCCATTGGG,1.03
13,AATGCTATGT,1.02
14,AGTTGACATA,0.983
15,GTTACGAATG,0.99
16,ACATCCCGGT,1.04
17,ATTTGAAAAG,1.04
18,TCTAGTGC,0.989
19,GTTACACCGT,1.02
20,GCTGCTGCTG,0.929
21,CAAAATGGCA,1.02
22,GTCTTTGGA,0.992
23,CTTAATATTG,1.03
24,GTTTGGGAAT,0.99
25,TAGCCAGTAC,2.36
